{"source": "paper PMC4336329", "about": "(PLoS ONE, 2015)", "note": "The whole screen tested about 310,000 compounds, of which about 14,000 (4.5%) showed an effect of 50% or more. The effect is printed as a negative number. Some of the results follow.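 Also: peak tail current of the secondary pulse compared with the same well before compound.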", "data": [{"molecular_target": "human ether-à-go-go-related gene (hERG) potassium channel (human, UniProt Q12809)", "sequence (Q12809 whole entry, looked up)": "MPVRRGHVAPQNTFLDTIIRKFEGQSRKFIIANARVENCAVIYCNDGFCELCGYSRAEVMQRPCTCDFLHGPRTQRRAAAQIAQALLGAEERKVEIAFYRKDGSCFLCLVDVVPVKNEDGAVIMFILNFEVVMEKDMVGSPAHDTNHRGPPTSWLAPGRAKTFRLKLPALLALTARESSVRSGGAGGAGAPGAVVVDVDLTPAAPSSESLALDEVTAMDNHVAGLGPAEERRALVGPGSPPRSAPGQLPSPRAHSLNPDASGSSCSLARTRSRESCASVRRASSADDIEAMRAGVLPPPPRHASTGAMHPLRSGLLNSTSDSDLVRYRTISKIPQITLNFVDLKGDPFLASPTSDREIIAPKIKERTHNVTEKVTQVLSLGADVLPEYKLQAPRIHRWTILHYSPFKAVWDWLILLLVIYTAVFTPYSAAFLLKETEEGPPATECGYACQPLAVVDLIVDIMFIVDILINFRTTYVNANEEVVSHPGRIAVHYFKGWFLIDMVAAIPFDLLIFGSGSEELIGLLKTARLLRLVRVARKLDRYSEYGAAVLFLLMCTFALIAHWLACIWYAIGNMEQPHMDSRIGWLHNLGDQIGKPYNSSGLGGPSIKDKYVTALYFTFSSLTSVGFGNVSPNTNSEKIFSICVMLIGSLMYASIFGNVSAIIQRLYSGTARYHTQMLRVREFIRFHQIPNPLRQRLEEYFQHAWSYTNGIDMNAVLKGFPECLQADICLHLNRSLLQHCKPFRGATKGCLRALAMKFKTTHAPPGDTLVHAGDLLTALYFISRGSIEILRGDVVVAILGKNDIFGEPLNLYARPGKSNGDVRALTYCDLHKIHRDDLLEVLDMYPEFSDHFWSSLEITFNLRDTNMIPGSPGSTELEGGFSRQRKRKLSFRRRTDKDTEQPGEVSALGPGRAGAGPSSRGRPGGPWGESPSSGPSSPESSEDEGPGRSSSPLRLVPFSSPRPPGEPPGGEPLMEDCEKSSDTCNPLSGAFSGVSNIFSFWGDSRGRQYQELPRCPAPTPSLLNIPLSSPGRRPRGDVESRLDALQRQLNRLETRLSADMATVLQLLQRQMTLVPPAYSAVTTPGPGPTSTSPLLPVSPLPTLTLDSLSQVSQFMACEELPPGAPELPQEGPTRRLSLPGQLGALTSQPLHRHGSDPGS", "assay": "primary screen, population patch clamp on CHO cells stably expressing hERG", "units": {"hERG current change (%, negative = inhibition) at 10uM": "%"}, "values": [{"smiles": "CC(C)=CCc1cc2c(=O)c3c(O)c4c(cc3oc2c(O)c1O)OC(C)C4(C)C", "note": "(centres unmarked)", "hERG current change (%, negative = inhibition) at 10uM": -2.84}, {"smiles": "O=C(NCCN1CCC(Cc2ccccc2)CC1)C1CCN(S(=O)(=O)N2CCC3(CC2)OCCO3)CC1", "hERG current change (%, negative = inhibition) at 10uM": -46.8}, {"smiles": "CC(C)[C@H](NC(=O)N1CC(=O)Nc2ccccc21)C(=O)N[C@@H](Cc1c[nH]c2ccccc12)C(=O)O", "hERG current change (%, negative = inhibition) at 10uM": 7.52}, {"smiles": "CC(=O)c1c(C)[nH]c(C(=O)NCc2ccccc2F)c1C", "hERG current change (%, negative = inhibition) at 10uM": 6.84}, {"smiles": "CC(=O)c1ccc(NC(=O)Cn2c3ccccc3c3nc(=O)cc(C)n32)cc1", "hERG current change (%, negative = inhibition) at 10uM": -14.2}, {"smiles": "CC(C)(C)c1ccc(-n2ncc3c2CCCC3NC(=O)c2cnccn2)cc1", "note": "(centres unmarked)", "hERG current change (%, negative = inhibition) at 10uM": 6.65}, {"smiles": "Cc1ccc(Nc2ncnc3c2cnn3C)cc1", "hERG current change (%, negative = inhibition) at 10uM": -42.8}, {"smiles": "CC(=O)OCC[N+](C)(C)C.[O-][Cl+3]([O-])([O-])[O-]", "hERG current change (%, negative = inhibition) at 10uM": 8.09}, {"smiles": "Cc1ccc(SCC2=NN(c3nc(C)cc(C)n3)C(=O)C2)cc1", "hERG current change (%, negative = inhibition) at 10uM": -16}, {"smiles": "Cc1nn(Cc2ccccc2)c(C)c1C(=O)NCCN1C(=O)S/C(=C\\c2ccc(F)cc2)C1=O", "hERG current change (%, negative = inhibition) at 10uM": -5.67}, {"smiles": "CC(C)(C)NC(=O)C(c1cccnc1)N(C(=O)c1ccc(Cl)nc1)C1CCCC1", "note": "(centres unmarked)", "hERG current change (%, negative = inhibition) at 10uM": 2.66}, {"smiles": "CC1=CC(C)(C)N2C(=O)C3(SCC(=O)N3c3ccc(O)cc3)c3cc(C)cc1c32", "note": "(centres unmarked)", "hERG current change (%, negative = inhibition) at 10uM": 0.598}, {"smiles": "CC1C(=NO)C(C)C(c2ccc(N(C)C)cc2)NC1c1ccc(N(C)C)cc1", "note": "(centres unmarked)", "hERG current change (%, negative = inhibition) at 10uM": -9.71}, {"smiles": "C=CCn1c(SCC(=O)NCC2CCCO2)nnc1-c1ccccc1", "note": "(centres unmarked)", "hERG current change (%, negative = inhibition) at 10uM": 8.59}, {"smiles": "COc1ccc(C2C(=O)N(C3CCCCC3)CC(=O)N2CCc2ccccc2)cc1OC", "note": "(centres unmarked)", "hERG current change (%, negative = inhibition) at 10uM": -25.7}, {"smiles": "C/C(=N\\NC(=O)CCCOc1ccc(Cl)cc1C)c1ccc(C)o1", "hERG current change (%, negative = inhibition) at 10uM": 3.58}, {"smiles": "CC(=O)c1ccc(NC(=S)N2CCCC(C(F)(F)F)C2)cc1", "note": "(centres unmarked)", "hERG current change (%, negative = inhibition) at 10uM": 3.1}, {"smiles": "COc1cccc(NC(=O)C(C)C)c1", "hERG current change (%, negative = inhibition) at 10uM": 11.4}, {"smiles": "O=C(C1=C[C@@H](c2coc3ccccc3c2=O)C[C@@H](OCc2ccc(CO)cc2)O1)N1CCN(Cc2ccc3c(c2)OCO3)CC1", "hERG current change (%, negative = inhibition) at 10uM": -66.1}, {"smiles": "COc1ccc(CCNc2ncnc3c2nnn3Cc2ccccc2)cc1OC", "hERG current change (%, negative = inhibition) at 10uM": -10.9}, {"smiles": "O=C(CSc1nc(N2CCCCC2)nc(N2CCCCC2)n1)Nc1nccs1", "hERG current change (%, negative = inhibition) at 10uM": 10.3}, {"smiles": "CCn1cc(/C=C(\\NC(=O)c2ccc(OC)c(OC)c2)C(=O)NCCN2CCOCC2)c2ccccc21", "hERG current change (%, negative = inhibition) at 10uM": -4.43}, {"smiles": "CC(=O)N1CCN(S(=O)(=O)c2ccc(S(=O)(=O)N3CCCC(C)C3)cc2)CC1", "note": "(centres unmarked)", "hERG current change (%, negative = inhibition) at 10uM": 15.6}, {"smiles": "CC(NCC(O)COc1ccc2ccccc2c1)c1ccccc1.O=C(O)C(=O)O", "note": "(centres unmarked)", "hERG current change (%, negative = inhibition) at 10uM": -44}, {"smiles": "CNC(=O)COc1ccc(Nc2nnc(C)c3ccccc23)cc1.Cl", "hERG current change (%, negative = inhibition) at 10uM": 6.34}, {"smiles": "COc1ccc(C(=O)Nc2ccc(C(=O)N3CCCCC3)cc2)cc1OC", "hERG current change (%, negative = inhibition) at 10uM": 10.5}, {"smiles": "CCN(CC)S(=O)(=O)c1ccc(N=NC2=C(O)CCCC2=O)cc1", "hERG current change (%, negative = inhibition) at 10uM": -6.95}, {"smiles": "COC(=O)C1=C(C)N(CCCC(=O)O)C(=O)NC1c1ccccc1Cl", "note": "(centres unmarked)", "hERG current change (%, negative = inhibition) at 10uM": -14}, {"smiles": "CC(=O)OCC(=O)NCc1ccc2c(c1)OCO2", "hERG current change (%, negative = inhibition) at 10uM": -28.4}, {"smiles": "CCCc1cc(=O)[nH]c2nnc(SCC(=O)NCc3ccc4c(c3)OCO4)n12", "hERG current change (%, negative = inhibition) at 10uM": -17.2}, {"smiles": "CSc1nnc(-c2cnccn2)n1C", "hERG current change (%, negative = inhibition) at 10uM": 14.2}, {"smiles": "O=C(NCc1nnc2c(C(F)(F)F)cc(Cl)cn12)C1CCCC1", "hERG current change (%, negative = inhibition) at 10uM": -12.7}, {"smiles": "O=C(NCCC(c1ccccc1)c1ccco1)c1cccs1", "note": "(centres unmarked)", "hERG current change (%, negative = inhibition) at 10uM": 3.71}, {"smiles": "COc1ccc(CNC(=O)COC(=O)c2ccccc2C(=O)c2ccccc2)cc1", "hERG current change (%, negative = inhibition) at 10uM": -14.1}, {"smiles": "Cc1ccnc(NC(=O)CCC(=O)c2cccs2)c1", "hERG current change (%, negative = inhibition) at 10uM": 12.5}, {"smiles": "O=C(CNC(=S)N(Cc1ccccc1F)C1CCCCC1)NCCN1CCOCC1", "hERG current change (%, negative = inhibition) at 10uM": 43.3}, {"smiles": "Cc1ccc(NC(=O)COC(=O)c2cc(Cl)ccc2[N+](=O)[O-])cc1", "hERG current change (%, negative = inhibition) at 10uM": -11.1}, {"smiles": "CCN(CC)CCN1C(=O)C(O)=C(C(=O)c2cccs2)C1c1ccccn1", "note": "(centres unmarked)", "hERG current change (%, negative = inhibition) at 10uM": -2.98}, {"smiles": "Cc1ccc(S(=O)(=O)N(C)C)cc1NC(=O)COC(=O)CCC1CCCC1", "hERG current change (%, negative = inhibition) at 10uM": -18.5}, {"smiles": "CC(=O)/C=C/n1c(=S)oc2ccccc21", "hERG current change (%, negative = inhibition) at 10uM": -3.04}, {"smiles": "O=C(O)c1ccc(N/N=C/C2=Cc3ccccc3OC2)cc1", "hERG current change (%, negative = inhibition) at 10uM": 0.815}, {"smiles": "COc1ccc(S(=O)(=O)N2CCCCCC2)cc1C(=O)NCc1ccc(C)cc1", "hERG current change (%, negative = inhibition) at 10uM": -29.1}, {"smiles": "CC(C)(C)c1ccc(CCC2OCC(C[N+]3(C)CCOCC3)O2)cc1.[I-]", "note": "(centres unmarked)", "hERG current change (%, negative = inhibition) at 10uM": 10.4}, {"smiles": "CCCOc1ccc(/C=N/NC(=O)CN(c2ccc(OCC)cc2)S(C)(=O)=O)cc1", "hERG current change (%, negative = inhibition) at 10uM": -12.3}, {"smiles": "Cc1ccc(-c2cc(C(=O)NN)n[nH]2)o1", "hERG current change (%, negative = inhibition) at 10uM": 17.7}, {"smiles": "CCCOC1CCCN(C(=O)CCCn2nnnc2CN2CCOCC2)C1", "note": "(centres unmarked)", "hERG current change (%, negative = inhibition) at 10uM": 9.27}, {"smiles": "CSCC(=O)Nc1cc(C)on1", "hERG current change (%, negative = inhibition) at 10uM": 7.57}, {"smiles": "COc1ccc(CC(C)Nc2ccccc2F)cc1", "note": "(centres unmarked)", "hERG current change (%, negative = inhibition) at 10uM": 30.1}, {"smiles": "O=C1C2C3C=CC(CC3)C2C(=O)N1/N=C/c1ccccc1O", "note": "(centres unmarked)", "hERG current change (%, negative = inhibition) at 10uM": 0.279}, {"smiles": "CC(NC(=O)Nc1ncccn1)(C(F)(F)F)C(F)(F)F", "hERG current change (%, negative = inhibition) at 10uM": -1.7}, {"smiles": "CCc1ccc(N2CC(C(=O)Nc3ccc(S(=O)(=O)NCC4CCCO4)cc3)CC2=O)cc1", "note": "(centres unmarked)", "hERG current change (%, negative = inhibition) at 10uM": 15.4}, {"smiles": "CCOC(=O)c1[nH]c(C)c(/C(O)=C2\\C(=O)C(=O)N(CCCn3ccnc3)C2c2ccncc2)c1C", "note": "(centres unmarked)", "hERG current change (%, negative = inhibition) at 10uM": 12.1}, {"smiles": "CCOCCCNC(=O)c1ccc(N2CC3CC(C2)c2cccc(=O)n2C3)c(NC(=O)Nc2cccc(OC)c2)c1", "note": "(centres unmarked)", "hERG current change (%, negative = inhibition) at 10uM": -2.16}, {"smiles": "CCOC(=O)C1CCCN(Cc2cc(=O)oc3cc(C)ccc23)C1", "note": "(centres unmarked)", "hERG current change (%, negative = inhibition) at 10uM": -13.6}, {"smiles": "Nc1nc(SCc2ccc(F)cc2)n[nH]1", "hERG current change (%, negative = inhibition) at 10uM": 21.2}, {"smiles": "O=C(COc1ccc(S(=O)(=O)N2CCCC2)cc1Cl)NC1CCCC1", "hERG current change (%, negative = inhibition) at 10uM": -25.5}]}]}
